# Test results reported in paper PMC4336329 (PLoS ONE, 2015).
# Among all 310,000 compounds or so, about 2,200 (0.71%) showed an effect of 50% or more. Effects have a minus sign here. The list shows a part of the results.
# Biological target: human ether-à-go-go-related gene (hERG) potassium channel (human, UniProt Q12809)
# Assay: primary screen, population patch clamp on CHO cells stably expressing hERG
# Chain of human ether-à-go-go-related gene (hERG) potassium channel (Q12809 whole entry, looked up): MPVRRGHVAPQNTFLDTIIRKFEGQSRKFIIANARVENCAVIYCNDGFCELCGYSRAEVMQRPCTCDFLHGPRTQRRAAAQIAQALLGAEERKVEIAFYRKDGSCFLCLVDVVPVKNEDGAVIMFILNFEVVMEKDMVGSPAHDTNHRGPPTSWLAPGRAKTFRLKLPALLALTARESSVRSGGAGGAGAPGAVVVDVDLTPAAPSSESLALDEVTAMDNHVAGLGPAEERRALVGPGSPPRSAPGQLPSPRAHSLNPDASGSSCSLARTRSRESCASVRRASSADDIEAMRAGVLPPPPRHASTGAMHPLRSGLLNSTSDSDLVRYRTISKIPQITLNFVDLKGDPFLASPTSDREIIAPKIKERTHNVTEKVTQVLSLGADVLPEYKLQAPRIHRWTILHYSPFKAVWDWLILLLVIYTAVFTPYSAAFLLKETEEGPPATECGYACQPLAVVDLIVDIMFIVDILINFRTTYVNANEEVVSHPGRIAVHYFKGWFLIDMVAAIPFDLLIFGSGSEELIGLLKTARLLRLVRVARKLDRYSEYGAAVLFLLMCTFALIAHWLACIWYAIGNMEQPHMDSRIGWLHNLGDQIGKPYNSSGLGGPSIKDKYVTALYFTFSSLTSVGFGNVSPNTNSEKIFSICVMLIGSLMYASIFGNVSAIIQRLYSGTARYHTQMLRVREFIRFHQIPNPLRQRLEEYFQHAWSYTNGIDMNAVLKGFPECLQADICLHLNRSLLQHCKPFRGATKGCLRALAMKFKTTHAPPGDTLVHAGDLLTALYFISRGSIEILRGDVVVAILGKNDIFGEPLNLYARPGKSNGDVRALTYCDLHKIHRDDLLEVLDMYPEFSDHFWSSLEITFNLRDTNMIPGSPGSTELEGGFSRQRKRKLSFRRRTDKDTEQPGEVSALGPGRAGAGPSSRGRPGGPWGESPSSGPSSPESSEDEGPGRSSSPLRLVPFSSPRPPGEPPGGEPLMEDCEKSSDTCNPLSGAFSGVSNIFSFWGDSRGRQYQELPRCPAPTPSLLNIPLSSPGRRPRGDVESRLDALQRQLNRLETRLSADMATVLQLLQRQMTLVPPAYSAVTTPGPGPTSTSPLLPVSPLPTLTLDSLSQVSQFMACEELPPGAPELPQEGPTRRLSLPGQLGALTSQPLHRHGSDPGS
row,SMILES,"hERG current change (%, negative = inhibition) at 1uM"
1,Cc1ccc2sc(N3CCN(C(=O)C4=COCCO4)CC3)nc2c1C,5.72%
2,CCCCOc1ccc(N=Cc2ccc[nH]2)cc1,23.1%
3,CSc1nnc(-c2ccc([N+](=O)[O-])cc2)o1,13.8%
4,CCN1CCCC1CNC(=O)c1[nH]c2ccc(OC)cc2c1C (stereo not shown),-27.5%
5,Cc1onc(C(=O)Nc2ccccc2C(F)(F)F)c1[N+](=O)[O-],16%
6,O=C1CN(C(=O)COC(=O)c2cccnc2Cl)c2ccccc2N1,11.1%
7,Cc1cc2cc(C)c(SCC(=O)NCc3ccco3)nc2cc1C,7.35%
8,O=[N+]([O-])c1ccc(Oc2ccc(S(=O)(=O)N3CCOCC3)cc2)cc1,-3.54%
9,CCc1ccc(Nc2ncc3c(n2)CC(C)(C)CC3=O)cc1,6.45%
10,Cc1cc(C)c(NC(=S)N(Cc2cccnc2)Cc2ccco2)c(C)c1,6.35%
11,COc1cccc(CC(=O)Nc2nc3c(s2)C(=O)CC(C)(C)C3)c1,10.7%
12,Cc1ccc(NC(=O)c2ccc3c(=O)n4c(nc3c2)CCCCC4)cc1F,-5.54%
13,O=C(NCC1CCCO1)c1ccc(NC(=O)c2cccc(Br)c2)cc1 (stereo not shown),10.4%
14,COc1ccc(OC)c(/C=C2\SC(=S)N(N3CCOCC3)C2=O)c1,14.8%
15,CN1CCN(c2cc(N3CCCC3)c([N+](=O)[O-])cc2F)CC1,8.13%
16,O=C(Cn1cnc2ccccc2c1=O)c1ccc2ccccc2c1,2.67%
17,CCN1CCN(C(=O)Nc2cccc3ccccc23)CC1,-9.46%
18,CCOC(=O)c1nn(-c2ccc(C)c(C)c2)c(=O)c(C#N)c1C,14.3%
19,CCO[C@H]1OC(C(=O)N2CCOCC2)=C[C@@H](c2ccc(C(F)(F)F)cc2)[C@@H]1CCCO,-4.86%
20,CCN(CC)CC#CCC(O)(c1ccccc1)c1ccc(Br)cc1.Cl (stereo not shown),4.23%
21,O=C(CP(=O)(CO)CO)c1ccc(Cl)cc1,-1.03%
22,CC(=O)n1cc(N(C(=O)CCl)c2ccc(C)cc2)c2ccccc21,11.7%
23,CN(CC(=O)Nc1ncn[nH]1)S(=O)(=O)c1cc(Cl)ccc1Cl,-6.58%

row,SMILES,"hERG current change (%, negative = inhibition) at 1uM"
1,CCN(c1ccccc1)S(=O)(=O)c1ccc(Cl)c(C(=O)OCC(=O)c2[nH]c(C)c(C(C)=O)c2C)c1,-5.09%
2,O=C(COC(=O)c1ccccn1)NNC(=O)c1ccc([N+](=O)[O-])cc1,-8.7%
3,O=C(Cc1nn[nH]n1)NCc1ccccc1Cl,-6.71%
4,OC1(c2cn(Cc3ccccc3)nn2)CCCCC1,7.09%
5,CC(C)N(CCNC(=O)c1cn(C)c2ccc(S(=O)(=O)N(C)C)cc2c1=O)Cc1ccccc1,0.0714%
6,CC(OC(=O)c1cccc(S(=O)(=O)N2CCCC2)c1)C(=O)c1ccccc1 (stereo not shown),15.7%
7,CC1Cc2ccccc2N1C(=O)CSc1nnc(C2CC2)n1C (stereo not shown),12.6%
8,O=C1c2ccccc2C(O)N1Cc1ccc2c(c1)OCO2 (stereo not shown),11.8%
9,Cc1ccc2nc(SCc3cn4c(C)cc(C)nc4n3)[nH]c2c1,1.84%
10,CSCCC(NC(=O)c1ccco1)C(=O)N1CCN(Cc2ccccc2)CC1 (stereo not shown),-0.0338%
11,CC1(C)CC2CC(C)(CN2Cc2c(O)ccc3ccccc23)C1 (stereo not shown),5.04%
12,O=C(NCCC1=CCCCC1)c1cc(COc2c(F)cccc2F)on1,9.73%
13,Cc1noc(C(=O)Nc2c(C)nn(Cc3ccccc3)c2C)c1Cl,10.1%
14,CC(C)N(CCO)C(=O)C(c1ccccc1)c1ccccc1,5.9%
15,CC1NC(=O)N(C)[C@@H]2NC(=O)N(C)C(c3ccc([N+](=O)[O-])cc3)[C@@H]12 (stereo partly shown),9.47%
16,O=C(Nc1cccc(F)c1)C1CC(=O)N(c2ccc(Cl)cc2)C1 (stereo not shown),5.67%
17,Nc1n[nH]c(-c2ccccc2)n1,2.25%
18,COc1ccc(CN2CCNC(=O)C2CC(=O)NCc2cc(C)n(C)n2)c(F)c1 (stereo not shown),-7.54%
19,COc1ccc(N(C)C2=NS(=O)(=O)c3ccccc32)cc1,14.5%
20,CC(C)(CO)CNC(=O)CC1C(=O)NCCN1CC(c1ccccc1)c1ccccc1 (stereo not shown),-1.82%
21,Cc1cc(Cl)c(S(=O)(=O)N2CCN(c3ccccn3)CC2)cc1OCC(N)=O,10.7%
22,O=C(CCN1C(=O)C2C3C=CC(C3)C2C1=O)NC1CCCCC1 (stereo not shown),13.8%
23,Cc1ccc2nc3n(c(=O)c2c1)-c1cc(Cl)ccc1C(=O)NC3Cc1ccccc1 (stereo not shown),14.7%

row,SMILES,"hERG current change (%, negative = inhibition) at 1uM"
1,CCc1cccc(CC)c1NC(=O)C(NS(=O)(=O)c1cccs1)c1ccccc1 (stereo not shown),5.54%
2,CCN1CCN(C(=O)CN2C(=O)c3ccccc3S2(=O)=O)CC1.Cl,7.47%
3,COc1ccc(CNC(=O)c2cc(C)nc3ccccc23)cc1OC,8.4%
4,Cc1ccccc1NC(=S)N(CCN(C)C)C(C)c1cccnc1 (stereo not shown),-2.56%
5,O=C(CN1C(=O)/C(=C/c2ccc(C(F)(F)F)cc2)Sc2ccccc21)NCCCN1CCOCC1,7.25%
6,O=C(O)CCCCCCCCCC[n+]1ccccc1.[Br-],15.6%
7,CCCCCCN1C=CC(=C2C(=O)c3ccccc3C2=O)C=C1,14.4%
8,Cc1nn(C)cc1CNC(=O)C1CCC(=O)N(CC2CCCCC2)C1 (stereo not shown),-5.08%
9,O=C1Nc2ccc(Br)cc2/C1=C/c1ccc(C(=O)O)cc1,16.2%
10,O=C(NC1CCC(O)CC1)c1cc(-c2ccco2)nc2ccccc12 (stereo not shown),14.6%
11,COc1ccc(C(O)Cc2nccn2C)cc1 (stereo not shown),3.22%
12,CCc1nc(SCC(=O)NCCc2ccc(OC)c(OC)c2)c2c(=O)n(C)c(=O)n(C)c2n1,5.67%
13,COC(=O)CC(NC(=O)c1ccc(C)cc1)c1ccc2c(c1)OCO2 (stereo not shown),11.1%
14,Cc1ccc([N+](=O)[O-])cc1S(=O)(=O)N1CCNCC1,19.2%
15,CC(=O)N1CCN(c2ccc(NC(=O)c3ccc4ccccc4c3)cc2)CC1,5.08%
16,CN(C(=O)c1ccccc1C(=O)c1ccccc1)C1CCS(=O)(=O)C1 (stereo not shown),14.7%
17,Cc1ccc(S(=O)(=O)N2CCN(C(=O)CN3CCCC3)C2)cc1,-2.92%
18,CC(C)(C)c1ccc(C(=O)NNC(=O)CCC(=O)Nc2ccccc2)cc1,7.03%
19,CCN(CC)CCNS(=O)(=O)c1ccc(/C=C/C(=O)O)cc1,17%
20,CCOC(=O)Nc1cc(Br)c2c(c1)OCCO2,-0.476%
21,Fc1ccc(Nc2ncnc3sccc23)cc1,5.5%
22,CCOc1ccc(-c2cc(C(=O)OC)[nH]n2)cc1,7.72%
23,O=C(Nc1nc(-c2cc(F)ccc2F)cs1)c1cccc(N2C(=O)CCC2=O)c1,3.1%

row,SMILES,"hERG current change (%, negative = inhibition) at 1uM"
1,CCC(C)NC(=O)c1ccccc1NC(=O)C(C)N(c1ccccc1)S(C)(=O)=O (stereo not shown),2.47%
2,CCOC(=O)C1(Cc2ccc(Cl)cc2)CCN(C(=O)c2sc(C)nc2C)CC1,-2.23%
3,CCOc1ncnc2c1oc1nc(CC(C)C)c3c(c12)CC(C)(C)OC3,7.81%
4,CCSc1nsc(NC(=O)Nc2cccc(C(C)=O)c2)n1,8.15%
5,CCOC(=O)CC1(NC(=O)c2cc(COc3cncc(Cl)c3)on2)CCCCC1,10.1%
6,O=C(C(=O)N1CCN(c2cccc(Cl)c2)CC1)c1c[nH]c2ccccc12,-2.47%
7,Cc1cc(N)ccc1N1CCCC1.Cl,4.08%
8,O=C(Cc1ccccc1)Nc1ncccn1,4.93%
9,COc1cc(OC)cc(C(=O)Oc2c(CN3CCOCC3)cc(Cl)c3cccnc23)c1,13.3%
10,Cc1nc2sccn2c(=O)c1S(=O)(=O)NCC(C)c1ccccc1 (stereo not shown),6.31%
11,COc1ccc(C(OC(=O)c2ccco2)C(=O)NCc2ccco2)cc1 (stereo not shown),13%
12,O=C(NC(=O)N1CCOCC1)c1ccccc1,10.1%
13,COc1cccc(C2=NN(C(=O)c3ccc(C)o3)C(O)(C(F)(F)F)C2)c1 (stereo not shown),11.5%
14,Cc1cc(-c2ccc(Cl)cc2)n2nc(C)cc2n1,16.8%
15,COc1cc(C(=O)Nc2ccc(C)cc2C(NCC(=O)NN)c2ccccc2)cc(OC)c1OC (stereo not shown),15.3%
16,CCCc1nnc(NC(=O)CCC(=O)NCc2ccc(Cl)cc2Cl)s1,19.3%
17,CC(NC(=O)c1ccccc1[N+](=O)[O-])C1CC2CCC1C2 (stereo not shown),18.5%
18,CCOc1cc(-c2n[nH]c(=S)n2Cc2ccccc2)ccc1OC(F)F,14.1%
19,CN(Cc1ccc(F)cc1)C(=O)CCc1nnc(-c2ccccc2)o1,2.97%
20,CCCc1cc(C(=O)N2CCCC(N3CCN(c4ccccc4C)CC3)C2)n(C)n1 (stereo not shown),3.48%
21,CCSc1nnc(NC(=O)c2cc(OC)c(OC)c(OC)c2)s1,4.55%
22,Cc1nn(-c2ccc(C(=O)O)cc2)c(=O)c2ccccc12,11%
